# Experimental data taken from the supplement of paper PMC9135407.
# Values joined by “and” are separate entries in the source; they are usually repeats but may differ in a detail not shown here. Equal values may be shown once. Where a name gives a salt, the structure may show the parent alone. Hit rate of the full screen: of about 5,800 compounds, about 620 (11%) showed activity.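 The calls were made as follows: active = score above a cut-off or among the top three wells of a plate; in these data no inactive exceeds 0.85.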 The entries are a selection whose mix differs from that of the whole data set.
# Tested on: primary human hepatic stellate cells (donor 1)
# Experiment: scaled lipid accumulation score (0 = DMSO-like, 1 = nortriptyline-like); higher = stronger HSC inactivation (lipid re-accumulation), active = hit call of the paper
# Details: 48 h
# [1] = library stock concentration: 10 mM
# [2] = library stock concentration: 1 mM
# [3] = library stock concentration: 3.33 mM
smiles,measurement,setting,value
CNCCC=C1c2ccccc2CCc2ccccc21.Cl,scaled lipid accumulation score,[1],active: 1.02
CC(Oc1ccc(O)cc1)(P(=O)(O)O)P(=O)(O)O,scaled lipid accumulation score,[1],inactive: ≤ 0
CCC(C)[C@H](NC(=O)[C@H](CCCCN)NC(=O)[C@H](CCCCN)NC(=O)[C@H](C)NC(=O)[C@H](CC(C)C)NC(=O)[C@H](C)NC(=O)[C@H](C)NC(=O)[C@H](CC(C)C)NC(=O)[C@H](C)NC(=O)[C@H](CCCCN)NC(=O)[C@H](CC(C)C)NC(=O)[C@H](CC(N)=O)NC(=O)[C@@H](N)[C@@H](C)CC)C(=O)N[C@@H](CC(C)C)C(N)=O (stereo partly drawn) [Mastoparan],scaled lipid accumulation score,library stock concentration: 3 mM,inactive: ≤ -0.012
"C=C1C[C@@H](O)[C@H](/C=C/[C@@H](O)C(C)(C)CCCC)[C@H]1C/C=C\CCCC(=O)O [9-deoxy-9-methylene-16,16-dimethyl Prostaglandin E2]",scaled lipid accumulation score,[2],inactive: ≤ 0
CNc1cc2c(Nc3cccc(Br)c3)ncnc2cn1,scaled lipid accumulation score,[3],inactive: ≤ 0
same,scaled lipid accumulation score,[1],inactive: 0.082
O=C1NC(=O)C(c2ccccc2[N+](=O)[O-])=C1Nc1ccc(O)c(Cl)c1,scaled lipid accumulation score,[3],inactive: 0.054
same,scaled lipid accumulation score,[1],inactive: 0.057 and inactive: 0.262 and inactive: 0.035
O=C1NC(=O)/C(=C/c2ccc3nccc(-c4ccncc4)c3c2)S1,scaled lipid accumulation score,library stock concentration: 80 uM,inactive: ≤ -0.009
same,scaled lipid accumulation score,library stock concentration: 400 uM,inactive: ≤ -0.009
same,scaled lipid accumulation score,library stock concentration: 2 mM,inactive: ≤ -0.009
same,scaled lipid accumulation score,[3],inactive: 0.048
same,scaled lipid accumulation score,[1],inactive: ≤ 0 and inactive: ≤ -0.001
CCCc1ncc(C[n+]2ccccc2C)c(N)n1 [Amprolium hydrochloride],scaled lipid accumulation score,,inactive: ≤ 0
CCCc1ncc(C[n+]2ccccc2C)c(N)n1 [Amprolium],scaled lipid accumulation score,library stock concentration: 6.3 mM,inactive: 0.006
same,scaled lipid accumulation score,[1],inactive: ≤ 0
CCCc1ncc(C[n+]2ccccc2C)c(N)n1 [Amprolium HCl],scaled lipid accumulation score,[3],inactive: ≤ 0
same,scaled lipid accumulation score,[1],inactive: ≤ -0.001
CN1Cc2c(C(=O)OC(C)(C)C)ncn2-c2ccsc2C1=O,scaled lipid accumulation score,[1],inactive: 0.05
"O=P(O)(O)OC1C(O)C(OP(=O)(O)O)C(O)C(OP(=O)(O)O)C1O [D-myo-Inositol-1,3,5-triphosphate (sodium salt)]",scaled lipid accumulation score,[2],inactive: 0.025
CCCCCCCCCCCCCCCCC/C=C/C(=O)O [.DELTA.2-trans Eicosenoic Acid],scaled lipid accumulation score,[2],inactive: ≤ 0
N#C/C(=C\c1ccc(O)c(O)c1)C(=O)Nc1ccccc1,scaled lipid accumulation score,[1],inactive: 0.037
N#C/C(=C\c1ccc(O)c(O)c1)C(=O)Nc1ccccc1 [Tyrphostin AG 494],scaled lipid accumulation score,[1],inactive: ≤ 0
CC(C(=O)O)c1cccc(Oc2ccccc2)c1 (stereo not drawn) [Fenoprofen],scaled lipid accumulation score,library stock concentration: 8.3 mM,inactive: ≤ 0
same,scaled lipid accumulation score,[1],inactive: ≤ 0
CC(C(=O)O)c1cccc(Oc2ccccc2)c1 (stereo not drawn) [Fenoprofen calcium salt dihydrate],scaled lipid accumulation score,,inactive: ≤ 0
CC(C(=O)O)c1cccc(Oc2ccccc2)c1 (stereo not drawn) [Fenoprofen Calcium],scaled lipid accumulation score,[3],inactive: ≤ 0
same,scaled lipid accumulation score,[1],inactive: ≤ 0
